Test results taken from the supplement of paper PMC3334620.
Over roughly 33,000 sequences, “E-score (-0.5 to 0.5)” has its median near -0.016; the highest 2% begin near 0.31. The list shows a part of the results.

molecular target: Cst6 (UniProt P40535); test: PBM E-score (8-mer binding enrichment) (E-score (-0.5 to 0.5)); higher = stronger / more preferred TF binding; most listed sequences are background and not binding sites; settings: protein concentration: 200 nM; construct: GST-DNA-binding domain
Summary of the method: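 Detection of bound protein used fluorescent anti-GST, with scans normalised by masliner. The proteins were GST-tagged yeast transcription factors applied at about 100-200 nM to universal all-10-mer Agilent arrays made double-stranded by primer extension. Each ungapped eight-base word, pooled with its reverse complement, was scored with an E-score from the Universal PBM Analysis Suite.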

Row | Sequence | PBM E-score
1 | ATCGGTCA | -0.0288
2 | GACGGTTA | -0.058
3 | GAATAATA | 0.244
4 | ACAAGGAT | 0.0852
5 | CTACGTAC | 0.00059
6 | ACGGAACC | 0.117
7 | CTGGTGAA | -0.15
8 | TCATTCAA | 0.217
9 | GGAGTGAA | -0.0454
10 | GTGTCGGA | -0.138
11 | TAGAAGCA | 0.137
12 | AGGTGTTG | 0.0355
13 | ACCGCACC | 0.0061
14 | AACCATAA | 0.13
15 | AGCACCGC | -0.284
16 | AGCTGAAG | -0.136
17 | CGAACCTC | 0.0197
18 | AACGGTGC | 0.0805
19 | ACTGGGCC | -0.233
20 | CCCAAACC | -0.143
21 | CAATAATA | 0.283
22 | AAGTGGAA | -0.0325
23 | CAGCCTTA | -0.254
24 | ATTTAAAA | 0.258
25 | GTCAAGAA | 0.2

Row | Sequence | PBM E-score
26 | ATTGTGAC | 0.244
27 | GGGACCTA | -0.149
28 | CGCACACG | -0.0109
29 | AGAGTCTA | -0.109
30 | CCCGGCAC | -0.318
31 | CCCAAGTA | -0.229
32 | CTAGCAGA | -0.0311
33 | AATCAAGG | -0.00856
34 | CTGAGGGA | -0.12
35 | GCAGTTTA | 0.00275
36 | GTACGCAA | 0.0898
37 | AGGAGGTG | -0.141
38 | ACAAGCTG | -0.00948
39 | CGAGATCC | -0.0304
40 | CACCTAAA | -0.0665
41 | AAGCAGTA | -0.152
42 | CATGGTCA | 0.225
43 | GCGTAGCC | -0.276
44 | ATCGAGAA | 0.0467
45 | AGAAAGGG | 0.0377
46 | GGCTAATA | 0.0847
47 | CAAGCGCG | -0.0487
48 | GTCTTCTA | 0.0601
49 | CGCTTTGC | 0.0492
50 | AGGCGCAT | 0.0355

Row | Sequence | PBM E-score
51 | AGTCACGG | 0.0365
52 | CTAATTCC | -0.0103
53 | CACACGCC | -0.0267
54 | ACCATGCA | -0.0485
55 | CAATCATG | 0.179
56 | GATTCGCA | -0.0144
57 | CAATCATC | 0.152
58 | GCGAGACA | -0.17
59 | AGTTCTGG | -0.0687
60 | ACCGCCAT | -0.0159
61 | AAGCCCAC | -0.177
62 | CTTCGCCA | -0.106
63 | ACGTCCCG | -0.179
64 | GATTACCC | 0.0267
65 | GATAGGCC | -0.294
66 | CAAAATCG | 0.0996
67 | GACCCGAA | -0.206
68 | CCTAAGGC | -0.109
69 | CTGGCAGC | -0.208
70 | ACGCGTCC | -0.129
71 | AGCATTTA | -0.0114
72 | AGACTTGC | -0.243
73 | CGGATCCC | -0.314
74 | ACAATGGC | -0.0317
75 | GTACTGAA | 0.171

Row | Sequence | PBM E-score
76 | CTGGCCGA | -0.244
77 | TCGTTAGA | -0.194
78 | CTGTTGGC | -0.263
79 | ATGCGGAG | -0.204
80 | AGTTCTAT | -0.0843
81 | ACAACATG | 0.152
82 | ACGAGTGA | 0.01
83 | ACACCTAT | 0.0251
84 | TGTTAGAA | 0.061
85 | GTAACTTA | 0.214
86 | GGTTTCAC | 0.051
87 | GGCTGGGA | -0.208
88 | GCCTCTCA | -0.231
89 | CATCCCGA | -0.083
90 | GTATAAAA | 0.254
91 | CCCAGGCA | -0.318
92 | AGACGTAC | -0.0375
93 | AACCTCTC | -0.228
94 | AACGGCCG | 0.065
95 | CGATACTC | -0.0389
96 | CCGTGAGG | -0.0986
97 | CACGCAAC | 0.264
98 | AACACCTA | -0.0667
99 | ACGGTCAC | 0.152
100 | CCCATGCC | -0.205

Row | Sequence | PBM E-score
101 | CAGCAGCC | -0.128
102 | CGTACCAC | 0.0284
103 | GCTACCCC | -0.34
104 | CAGAAGGG | -0.191
105 | GACACACA | 0.146
106 | ATCCGCCC | -0.317
107 | ACGCCACG | 0.0785
108 | CCGCCAGA | -0.078
109 | CGCGCGAC | 0.0579
110 | TCCGAACA | -0.0581
111 | AAAGGGGA | -0.291
112 | ACACTGTG | 0.0104
113 | ACACGCAC | -0.0949
114 | AGTGACCA | -0.105
115 | GGCGCGAA | 0.107
116 | GTGAACAC | 0.00153
117 | ATATATTA | 0.336
118 | TCTTAGCA | -0.0175
119 | AGTAAGTG | 0.0876
120 | ACGAATCG | 0.148
121 | CGGTTGCA | -0.0979
122 | CGGAGCCG | 0.077
123 | GATACAGA | 0.0801
124 | AGCGAACG | -0.215
125 | ATTTCGCC | 0.125

Row | Sequence | PBM E-score
126 | CGTTTCTA | 0.0884
127 | ATCATGAG | 0.146
128 | GATACCTA | 0.0533
129 | AGCTACAC | -0.0312
130 | CGGCTGAC | -0.0468
131 | CTTCTCGC | -0.00321
132 | TACTAGCA | -0.0555
133 | AGTGTTTG | 0.0763
134 | TCCAGTAA | -0.259
135 | CCCACGAA | -0.129
136 | CTTAGGAC | -0.103
137 | CGCCGTGC | 0.344
138 | ACATTTAG | -0.0508
139 | TCGATCGA | 0.135
140 | AATCCTGG | -0.113
141 | GCTCGCGA | -0.109
142 | GATAGGTA | -0.00617
143 | AAACCCTT | -0.0827
144 | GATATCTA | 0.0454
145 | CATCGCCA | 0.0609
146 | ACGATGTC | 0.0231
147 | AGCGTTAT | -0.0472
148 | CCAAGATA | -0.0457
149 | AACTGGCC | -0.148
150 | CATGCCAG | -0.0651

Row | Sequence | PBM E-score
151 | GTTCTCTA | 0.0871
152 | CGCTTAGA | -0.248
153 | GAAGGTGC | -0.268
154 | CACGCCTG | -0.102
155 | AAGTACCG | -0.0946
156 | CTGAACGA | 0.00235
157 | ATGCCGTA | 0.372
158 | CGCATTGC | 0.16
159 | CGGATCAC | 0.16
160 | GCCTTACA | 0.0413
161 | AGACAGCC | -0.3
162 | TATACGGA | 0.00453
163 | CCCTTTAA | -0.0558
164 | AAGTTCTC | -0.0938
165 | AGTAAGCG | -0.0624
166 | CCACCGTC | -0.201
167 | TATGCTAA | 0.0861
168 | CCATCCGC | 0.0484
169 | AAGTTTGT | 0.0881
170 | AACCGATC | -0.0645
171 | GTCACATA | 0.245
172 | CATCTCAC | 0.0124
173 | CTCTCTCA | -0.111
174 | CACACACC | 0.00235
175 | CTCCGGCC | -0.298

Row | Sequence | PBM E-score
176 | AAGGATTG | 0.0586
177 | ACATCGTG | 0.0167
178 | AGCACCAA | -0.0932
179 | AAGGGAAT | 0.112
180 | ACTGACAC | -0.121
181 | ATTCCACC | 0.0657
182 | GAGCCGAA | -0.00213
183 | CCTCAAGG | -0.153
184 | TGGCGTAA | 0.294
185 | CAAGGCAG | -0.119
186 | AGGCGTGA | 0.0189
187 | ATGCAGGC | -0.123
188 | CGATCCAC | -0.131
189 | AAAGAGGC | -0.169
190 | TACAGCCA | -0.0845
191 | TTCCACAA | 0.0661
192 | CGTAATAA | 0.325
193 | ACGAGGAC | -0.177
194 | CGCACTAA | -0.0243
195 | CGTATCGC | -0.00089
196 | ATCGAAGA | 0.116
197 | GCCCCCAC | -0.394
198 | CTCCTCTC | -0.371
199 | CACGCGTG | -0.00323
200 | CCGATCAG | -0.0851

Row | Sequence | PBM E-score
201 | TACCCAGA | -0.12
202 | CGTAGTTA | 0.138
203 | ATCGGGAA | -0.0762
204 | CCCCGTTC | -0.0982
205 | AACCGTAC | -0.141
206 | ACGTTAAT | 0.171
207 | CACCGAAC | 0.00131
208 | GTAATCAC | 0.225
209 | AGCGCACA | -0.185
210 | GATAAGCC | -0.329
211 | CCGCTCCA | -0.152
212 | ACCCACCG | -0.0181
213 | GACCGGTC | -0.234
214 | GTATGTAA | 0.282
215 | GACCTTCC | -0.294
216 | CACAATTA | 0.211
217 | ACACGGAC | -0.00107
218 | CCCGTAAA | 0.0203
219 | AGGCTCCA | -0.199
